Data as given in the supplement of paper PMC3334620.
Whole data set: some 33,000 sequences, median “E-score (-0.5 to 0.5)” near -0.054, cut for the highest 2% near 0.39. The list shows a part of the results.

Biological target: Ylr278c (UniProt Q05854)
Experiment: PBM E-score (8-mer binding enrichment) (E-score (-0.5 to 0.5)); higher = stronger / more preferred TF binding; most listed sequences are background and not binding sites
Conditions: protein concentration: 200 nM; construct: GST-DNA-binding domain
In short: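 Universal all-10-mer Agilent arrays, double-stranded by primer extension on fresh or once-stripped slides, were probed with about 100-200 nM GST-tagged yeast transcription factors made by PURExpress. Fluorescent anti-GST detected bound protein, and masliner normalised the scans. E-scores from the Universal PBM Analysis Suite were given to each ungapped eight-base word pooled with its reverse complement.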

Sequence | PBM E-score
ACTTGTAC | -0.137
CCTCTTCC | -0.142
GACGAACC | 0.0713
ATGGTAGC | -0.0197
AGGGGCTC | -0.194
TACCCTCA | -0.164
GCCCAGTA | -0.0556
AAGGTACC | -0.103
GTTACAAA | -0.0452
CCAGCGCA | 0.0176
TAAGCGTA | -0.2
CGCGGTTC | 0.162
AGGAGGCG | 0.0553
GAGGCACA | -0.0636
CTATCGGC | 0.239
CGTTGTGC | 0.0945
AAGGCGAC | -0.0783
ACGGCAGT | -0.0906
CAGCTGAC | -0.00477
CACACTCG | -0.0438
CACGTCGC | 0.0696
GCAGGAGC | -0.194
ATCCACAA | -0.156
GAGATATA | 0.0511
ATTCCTTC | -0.00233

Sequence | PBM E-score
ACGAATAC | -0.157
AGTTGTGA | -0.0452
AATACGGC | 0.107
GGAAACAA | 0.0827
CCAAACAA | 0.0214
ACACCATG | -0.248
CCGCCCGC | 0.349
ATTATTGC | 0.0912
CCTTGTAA | -0.099
AAGCCTCG | -0.00794
GATCAGAC | -0.172
TAGATTAA | 0.00357
CCCCTGTA | -0.019
CAATCAAA | -0.00275
AACAATCC | 0.161
ACACTAAT | -0.105
CGGCTGTC | 0.0899
CCCGGCTC | 0.219
CCTTCGAA | 0.155
CGAGCGTC | -0.107
AGACTCTA | -0.302
CTTGTGGC | -0.229
ATTATAAT | 0.104
CACTTAAC | -0.162
GTACGTTA | 0.0478

Sequence | PBM E-score
ACCTCCGT | 0.383
ACAATCAG | -0.177
CACGGCAC | -0.0251
GGGTCTTA | -0.0338
ACCAACTC | -0.047
ACGCCAGT | -0.211
CTTATACC | -0.0532
AGTCTAAA | -0.213
CCAGAAAC | 0.0237
GGGGCCCC | 0.24
CTTCCGAC | 0.273
GTTTCGTA | 0.0178
AAGTTGCA | -0.162
AAGCGGCA | 0.24
GAAGCAAA | -0.266
CGGGGCGA | 0.261
AGTACGAT | -0.116
CAGTAGGC | -0.254
AACCCAAG | -0.101
CCGCGCGA | 0.216
GTTATATA | -0.0729
TGTACGAA | -0.0825
CTCGAGAC | 0.00037
ATCAACTC | -0.0566
AGGCAGTG | -0.195

Sequence | PBM E-score
ACCTCTCG | -0.122
ATGTAGCG | -0.0307
ATAGAGGA | -0.313
AGGCCGCC | 0.138
ACCGGCCA | 0.169
GAGATCCC | 0.221
AATGGATC | -0.0163
GAGATAAA | 0.104
ACCTCAGA | -0.0802
TGTGGTAA | -0.0151
AGTCACAT | -0.203
CTCACAAC | -0.0413
TAATCGGA | 0.417
ATCCTCGA | -0.17
CGTTAAGA | -0.157
CGCGAGAG | 0.0707
ACGGAAAA | 0.346
AACCGGAC | 0.414
ATGGTCAC | -0.0597
ATCCCAGA | -0.238
CCACAGAG | -0.25
TCTATGAA | -0.214
CCAAAACA | -0.244
ACCTGCCA | -0.169
GGCTGCAA | 0.0552

Sequence | PBM E-score
TGCTTCAA | -0.131
ACATTCCA | -0.0927
AATAGAGT | -0.299
CAAGTGAG | -0.263
CAATGTAA | -0.0302
TAAAACGA | -0.2
ATGTACCC | -0.103
ACAACCAG | -0.174
AAAACCGA | 0.236
AGCAGGGA | -0.141
ATTAATCA | -0.0639
TCATGACA | -0.0511
CCTGAAGA | -0.0995
GAACGACC | -0.189
TCCCGTCA | 0.139
CTCCACAG | -0.271
AATGTCTG | -0.0409
AATCGAGG | -0.0146
CGCGATGA | 0.0922
GCGTCGAA | -0.0135
CCTGCGAA | -0.0352
CAGCAGAA | -0.0912
CCCATCCC | -0.0544
CTAACTAG | 0.00403
CTACACGA | -0.136

Sequence | PBM E-score
AAACATCC | 0.191
ATGGCAAA | -0.154
AACATGAG | -0.164
AGAAGAAC | -0.00839
CGCATGAA | -0.0862
AATGTATC | -0.107
CACACACA | -0.153
AGGCACAT | -0.0629
ACTATGAC | -0.198
ATTTGTCG | 0.17
AAATTACG | -0.0128
ACGAACTG | -0.0669
AGGGATGC | -0.32
AAGCCTTG | -0.127
ACGTAAGT | -0.159
CCTATCCA | -0.169
CCGGAGCC | 0.422
GCCTGGCC | -0.0237
ATACGATA | -0.118
ACCTTGAA | -0.244
GACTATGC | -0.197
ACCTAGTC | -0.11
AGGGCTAT | -0.31
TCACATCA | -0.118
CCTCATGA | -0.121

Sequence | PBM E-score
GACCACCC | -0.191
TACACGAA | 0.0186
ATCCGTTG | 0.255
ATGGATGA | -0.173
CAAGAGGG | -0.292
AACGTATG | -0.345
ACCACCCG | 0.0732
CGGGAGAA | 0.238
TACGGGAA | 0.182
AGGAGTTA | 0.232
ACTAATCA | 0.0547
CAATTTCG | 0.0307
ACTGGCGA | -0.237
ACGACATC | -0.044
CACTACCC | -0.118
AATGGAAG | 0.0805
CTGCCGAA | 0.0975
ACACCGAG | 0.203
CCTGGAAG | -0.185
CAGGATCG | 0.00336
AAAGAGAG | -0.119
CCCGGAAA | 0.429
